# Reference: PubChem BioAssay AID588342 (National Center for Advancing Translational Sciences (NCATS), 2011)
# The campaign covered roughly 360,000 compounds. About 25,000 (6.9%) were called active. The shares of active, inactive and inconclusive entries below differ from those in the screen. The call rests on the fitted dose curve; in most records, active means well fitted inhibition curve with a large enough effect; inconclusive means small, poorly fitted or top-dose-only effect; inactive means flat fitted curve, though single readings scatter. Potencies beside an inconclusive call are fits to weak or partial responses and may not hold up.
# Target: Luciferin 4-monooxygenase (Photinus pyralis) (UniProt P08659)
# Chain of UniProt P08659 (P08659 whole entry, looked up): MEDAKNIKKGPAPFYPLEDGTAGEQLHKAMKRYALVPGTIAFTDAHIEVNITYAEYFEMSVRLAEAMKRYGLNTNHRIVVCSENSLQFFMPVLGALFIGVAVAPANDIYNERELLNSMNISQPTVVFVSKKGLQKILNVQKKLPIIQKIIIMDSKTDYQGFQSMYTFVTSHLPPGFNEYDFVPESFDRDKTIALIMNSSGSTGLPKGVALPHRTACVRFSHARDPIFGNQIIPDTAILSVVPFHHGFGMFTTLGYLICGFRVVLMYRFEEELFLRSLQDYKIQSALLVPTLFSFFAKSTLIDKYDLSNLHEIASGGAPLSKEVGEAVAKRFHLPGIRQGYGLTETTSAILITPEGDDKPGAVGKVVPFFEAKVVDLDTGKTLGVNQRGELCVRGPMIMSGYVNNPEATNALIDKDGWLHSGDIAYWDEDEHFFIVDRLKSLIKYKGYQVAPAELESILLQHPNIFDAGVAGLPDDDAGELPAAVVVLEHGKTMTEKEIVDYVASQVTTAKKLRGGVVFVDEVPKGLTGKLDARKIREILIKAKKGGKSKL
# Assay: qHTS profiling assay for firefly luciferase inhibitor/activator using purifed enzyme and Km concentrations of substrates (counterscreen for miR-21 project); further: nearly all actives have a fitted effect of over 55% in size;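 on activity change, negative = inhibition: plate controls were vehicle for no effect and reference inhibitor for full effect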
# Conditions: purified FLuc, luminescence inhibition; series mostly up to 57.5 µM; activity change, negative = inhibition: at the top concentration
# Procedure, shortened: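 Purified P. pyralis luciferase, 10 nM final, with Km-level 10 uM D-luciferin and 10 uM ATP in 50 mM Tris acetate pH 7.5, 10 mM Mg acetate, 0.01% Tween-20, 0.05% BSA; 6-point qHTS titration about 60 µM downward; luminescence read.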
# Potency means the concentration at half of the fitted maximal effect; tags describe the fitted curve by direction and shape.
SMILES,Potency,"activity change, negative = inhibition"
COc1ccc(C(=O)/C=C/N2CCCCC2)cc1OC,active: 23.9 µM,–
COC(=O)c1ccc(COC(=O)c2ccccc2OC)cc1,active: 19 µM,–
Cc1cc(C)cc(OCC(=O)Nc2ccc(N3CCOCC3)cc2N2CCOCC2)c1,–,inactive: 1.89%
Cc1ccc(NC(=O)Cn2nc3c(cc2=O)CCCC3)cc1Cl,–,inactive: 4.76%
COc1cc(CNCCSc2nnnn2C)ccc1OCc1ccc(Cl)cc1Cl,"inconclusive: 30.1 µM [inhibitor, partial curve, poor fit]",–
COc1cc(OC)c(NC(=O)Nc2ccc(OC)c(OC)c2)cc1Cl,"inconclusive: 23.9 µM [inhibitor, partial curve, poor fit]",–
COC(=O)c1ccc(C2NC(=O)c3c(sc(C)c3C)N2)cc1 (configuration not stated),"inconclusive: 23.9 µM [inhibitor, partial curve, poor fit]",–
CSc1ccccc1OCc1cc(C(=O)N2CCSCC2)no1,"inconclusive: 2.69 µM [inhibitor, partial curve]",–
Cc1nc(-n2nc(C)c(CCC(C)C)c2C)sc1C(=O)Nc1cccc(Cl)c1,–,inactive: -0.422%
CC(C)CN(C(=O)Cn1nnc(-c2ccc(F)cc2)n1)C1CCS(=O)(=O)C1 (configuration not stated),–,inactive: 6.3%
O=[N+]([O-])c1ccc(N/N=C/c2ccccc2)c(F)c1,active: 10.7 µM,–
Clc1ccc(NCc2nc3ccccc3n2CCOc2ccccc2)cc1,"inconclusive: 10.7 µM [inhibitor, partial curve]",–
CC(=O)Nc1ccc2nc(-c3cccnc3)[nH]c2c1,"inconclusive: 23.9 µM [inhibitor, single point]",–
Cc1cc(C)n(/N=C/c2ccc(C(C)C)cc2)c(=O)c1C#N,"inconclusive: 30.1 µM [inhibitor, partial curve, poor fit]",–
Oc1cccc(/C=N\Nc2nncc(-c3ccccc3)n2)c1,"inconclusive: 4.78 µM [inhibitor, full curve]",–
CCCc1nc2ccccc2n1CCOC,"inconclusive: 26.9 µM [inhibitor, single point]",–
CCOc1cc(/C=N/Nc2cccc(C(=O)O)c2)ccc1OCC(=O)N1CCCCC1,active: 21.3 µM,–
On1onc2c3cc(-c4ccccc4)nc3ccc21,"inconclusive: 21.3 µM [inhibitor, single point]",–
COc1ccc(CCNC(=O)c2ccc(CN3CCOCC3)cc2)cc1,"inconclusive: 16.9 µM [inhibitor, partial curve, poor fit]",–
C(=N\Nc1nc2ccccc2[nH]1)/c1ccc2ncccc2c1,active: 2.13 µM,–
Cn1c(/C=C/c2cccc([N+](=O)[O-])c2)nc2ccccc2c1=O,–,inactive: -1.84%
CCN(CC)CCNC(=O)c1sc2nc(-c3ccccc3)cn2c1C,"inconclusive: 37.9 µM [inhibitor, partial curve, poor fit]",–
CNC(=O)c1cnc2sc(N3CCCCCC3)nn2c1=O,"inconclusive: 23.9 µM [inhibitor, partial curve, poor fit]",–
Cc1nc(NC(=O)C2CCCC2)sc1Cc1ccc2c(c1)OCO2,active: 16.9 µM,–

SMILES,Potency,"activity change, negative = inhibition"
CC(C)(C)c1ccc(/C=C2\Oc3cc(O)ccc3C2=O)cc1,"inconclusive: 2.39 µM [inhibitor, full curve, poor fit]",–
Cc1cccnc1NC(=O)COc1ccc2c(c1)CCC2,active: 16.9 µM,–
CCC1CN(C(=O)N2CCC(C(=O)N3CCN(c4ccccc4F)CC3)CC2)c2ccccc2O1 (configuration not stated),–,inactive: -12.2%
CCc1ccc(C(=O)NNc2ccccc2F)cc1,"inconclusive: 19 µM [inhibitor, partial curve]",–
CCS(=O)(=O)N1CCN(S(=O)(=O)c2ccc(Cl)s2)CC1,"inconclusive: 37.9 µM [inhibitor, single point]",–
COc1ccc(NC(=O)Nc2ccc3nsnc3c2)cc1,active: 6.75 µM,–
O=C(NCc1ccccn1)C(=O)Nc1nc(C23CC4CC(CC(C4)C2)C3)cs1,"inconclusive: 21.3 µM [inhibitor, single point]",–
Cc1cccc(CN2CCC(Oc3ccc(C(=O)N4CCCC4)cc3)CC2)n1,–,inactive: 4.58%
COCCCn1c(=S)[nH]c2ccc(N3CCOCC3)cc2c1=O,"inconclusive: 30.1 µM [inhibitor, partial curve, poor fit]",–
CCOC(=O)c1c(N/N=C/c2cccnc2)n[nH]c1C,"inconclusive: 19 µM [inhibitor, partial curve]",–
Cc1c(C)n(CCc2ccccc2)c2ncnc(NCCCO)c12,active: 10.7 µM,–
COc1ccc2c(c1)c(CC(=O)OCC(=O)O)c(C)n2C(=O)c1ccc(Cl)cc1,"inconclusive: 23.9 µM [inhibitor, single point]",–
CC1CCc2sc(C(=O)NN)cc2C1 (configuration not stated),"inconclusive: 30.1 µM [inhibitor, partial curve, poor fit]",–
Cc1cnc(NC(=O)Cc2c[nH]c3ccccc23)s1,"inconclusive: 16.9 µM [inhibitor, partial curve]",–
CN(C(=O)c1cc(COc2c(F)cccc2F)on1)C1CCOC1 (configuration not stated),"inconclusive: 16.9 µM [inhibitor, partial curve, poor fit]",–
O=C(COc1ccc(F)cc1)NCc1ccc2c(c1)CCN2C(=O)c1ccccc1,–,inactive: -19.5%
Cc1ccc(Nc2ccc(C(=O)O)cc2N)cc1,active: 5.36 µM,–
Cc1nn(-c2ccc(F)cc2)c2sc(C(=O)O)cc12,"inconclusive: 26.9 µM [inhibitor, single point]",–
CC(=O)Oc1c(C)cc(Cl)cc1C(=O)Nc1ccc([N+](=O)[O-])cc1Cl,"inconclusive: 6.01 µM [inhibitor, partial curve, poor fit]",–
c1ccc2c(Nc3nc(N4CCOCC4)c4ccccc4n3)cccc2c1,"inconclusive: 21.3 µM [inhibitor, single point]",–
CCOc1ccc(Nc2nn(-c3ccc(OC(F)(F)F)cc3)nc2C(C)=O)cc1,–,inactive: -0.792%
CCOC(=O)c1ccc(NC(=O)COC)cc1,"inconclusive: 21.3 µM [inhibitor, partial curve, poor fit]",–
O=C(Nc1nc(-c2ccccc2)cs1)c1cccs1,active: 8.49 µM,–
